These results are taken from PMC4336329 (PLoS ONE, 2015).

Screen size: about 310,000 compounds; about 2,200 (0.71%) showed an effect of 50% or more. Effects have a minus sign here. Some of the results follow.

Chain of human ether-à-go-go-related gene (hERG) potassium channel (Q12809 whole entry, looked up): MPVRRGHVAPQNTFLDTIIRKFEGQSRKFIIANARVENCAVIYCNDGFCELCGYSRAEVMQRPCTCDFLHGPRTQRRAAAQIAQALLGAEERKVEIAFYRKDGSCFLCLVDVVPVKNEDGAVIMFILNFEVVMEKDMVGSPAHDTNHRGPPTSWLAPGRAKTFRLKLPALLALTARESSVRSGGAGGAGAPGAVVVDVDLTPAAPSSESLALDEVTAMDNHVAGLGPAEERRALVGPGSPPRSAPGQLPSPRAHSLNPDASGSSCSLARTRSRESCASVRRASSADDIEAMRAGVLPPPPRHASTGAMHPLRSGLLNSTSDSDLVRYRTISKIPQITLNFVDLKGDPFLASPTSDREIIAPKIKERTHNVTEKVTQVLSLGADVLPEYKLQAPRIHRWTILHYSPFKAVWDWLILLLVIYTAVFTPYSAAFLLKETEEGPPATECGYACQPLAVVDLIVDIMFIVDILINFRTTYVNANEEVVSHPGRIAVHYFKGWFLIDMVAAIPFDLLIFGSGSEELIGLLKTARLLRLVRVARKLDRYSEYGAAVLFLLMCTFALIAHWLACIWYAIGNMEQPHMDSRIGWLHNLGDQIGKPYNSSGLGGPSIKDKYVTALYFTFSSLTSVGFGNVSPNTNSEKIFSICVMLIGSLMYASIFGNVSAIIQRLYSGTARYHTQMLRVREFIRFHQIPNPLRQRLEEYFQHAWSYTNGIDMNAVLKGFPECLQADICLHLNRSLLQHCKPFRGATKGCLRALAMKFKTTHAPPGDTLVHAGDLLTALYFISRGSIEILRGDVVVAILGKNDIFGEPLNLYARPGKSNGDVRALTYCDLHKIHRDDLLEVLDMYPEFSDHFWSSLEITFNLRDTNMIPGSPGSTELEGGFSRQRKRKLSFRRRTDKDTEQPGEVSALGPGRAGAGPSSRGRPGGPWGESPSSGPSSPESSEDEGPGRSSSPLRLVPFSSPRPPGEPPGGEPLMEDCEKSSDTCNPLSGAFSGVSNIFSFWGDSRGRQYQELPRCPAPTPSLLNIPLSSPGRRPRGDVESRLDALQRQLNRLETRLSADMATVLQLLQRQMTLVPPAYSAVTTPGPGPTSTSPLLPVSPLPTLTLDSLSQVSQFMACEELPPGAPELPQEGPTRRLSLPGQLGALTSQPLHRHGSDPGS

The experiment has as its target human ether-à-go-go-related gene (hERG) potassium channel (human, UniProt Q12809). The experiment is described as follows: primary screen, population patch clamp on CHO cells stably expressing hERG.
Regarding `CC(C)c1[nH]nc2c1C1(CCN(Cc3ccccc3)CC1)C(C#N)=C(N)O2`, the “hERG current change (%, negative = inhibition) at 1uM” value is reported as -14%.

Regarding `COc1cc(S(=O)(=O)N2CCN3CCCC3C2)ccc1-n1cnnn1` (stereo not drawn), the “hERG current change (%, negative = inhibition) at 1uM” value stood at 8.83%.

On to `Cc1nn(-c2ccccc2)c(=O)c2ccccc12`, for which the “hERG current change (%, negative = inhibition) at 1uM” value amounted to 15.6%.

For `CCn1ccnc1CN1CCc2c([nH]c3ccccc23)C1C1CCCCC1` (stereo not drawn), the “hERG current change (%, negative = inhibition) at 1uM” value was 4.47%.

For the molecule `CCO[C@H]1OC(C(=O)N2CCN(C)CC2)=C[C@@H](C2CC2)[C@@H]1CCCO`, the “hERG current change (%, negative = inhibition) at 1uM” value was 15.5%.

As for `Cc1c(NC(=O)c2ccc(N3CCCC3)c([N+](=O)[O-])c2)cccc1-c1nc2ccccc2s1`, the “hERG current change (%, negative = inhibition) at 1uM” value was found to be 8.95%.

Consider `CCNC(=S)N1CCn2cccc2C1c1cccnc1` (stereo not drawn), for which the “hERG current change (%, negative = inhibition) at 1uM” value was 4.02%.

On to `CC(=O)OC1N=C(c2ccc(Cl)cc2)c2cc(Br)ccc2NC1=O` (stereo not drawn), for which the “hERG current change (%, negative = inhibition) at 1uM” value was 0.259%.

In the case of `O=C(C1CCN(c2nnc(-n3cccc3)s2)CC1)N1CCCCC1`, the “hERG current change (%, negative = inhibition) at 1uM” value is 7.57%.

Consider `CCOCCCNS(=O)(=O)c1ccc(NC(=O)Cc2c(F)cccc2Cl)cc1`, for which the “hERG current change (%, negative = inhibition) at 1uM” value was determined as 9.48%.

In the case of `COc1cccc(CN=CC2=C(O)CC(C)(C)CC2=O)c1OC`, the “hERG current change (%, negative = inhibition) at 1uM” value came out at 4.98%.

Take `Cc1ccc(S(=O)(=O)Nc2cccc3cccnc23)c([N+](=O)[O-])c1`: the “hERG current change (%, negative = inhibition) at 1uM” value amounted to 12.5%.

Regarding `CC(NC(=O)C(=O)N/N=C/c1ccccc1)c1ccccc1` (stereo not drawn), the “hERG current change (%, negative = inhibition) at 1uM” value stood at 15.4%.

On to `CC(NC(=O)COC(=O)c1ccc2c(c1)OCO2)c1ccccc1` (stereo not drawn), for which the “hERG current change (%, negative = inhibition) at 1uM” value came to 8.7%.

Consider `Cc1ccc(C)c(SCC(=O)OCC(=O)NCc2ccccc2)c1`, for which the “hERG current change (%, negative = inhibition) at 1uM” value worked out at 9.47%.

On to `CCC(C)NC(=O)C1c2cc(OC)c(OC)cc2C(=O)N(C)C1c1ccc(OC)cc1` (stereo not drawn), for which the “hERG current change (%, negative = inhibition) at 1uM” value worked out at 1.95%.

With `O=C(Nc1csnn1)c1csnn1`, the “hERG current change (%, negative = inhibition) at 1uM” value came out at 14.4%.

With `Cc1ccc(C(=O)NNC(=O)c2ccc(SCC3CCCO3)c([N+](=O)[O-])c2)cc1` (stereo not drawn), the “hERG current change (%, negative = inhibition) at 1uM” value came to 5.2%.

With `Cc1ccc(NS(=O)(=O)c2csc(C(N)=O)c2)c(C)c1`, the “hERG current change (%, negative = inhibition) at 1uM” value came to 31.1%.

With `COc1ccc(C(=O)NCC(=O)N/N=C/C=C/c2ccccc2)cc1OC`, the “hERG current change (%, negative = inhibition) at 1uM” value is recorded as -35.7%.

On to `CCN(CC)S(=O)(=O)c1ccc(Cl)c(NC(=O)COC(=O)c2ccc(O)cc2)c1`, for which the “hERG current change (%, negative = inhibition) at 1uM” value was -4.92%.

Regarding `Cc1ccc(Cl)cc1NC(=O)C1CCCN(c2cnccn2)C1` (stereo not drawn), the “hERG current change (%, negative = inhibition) at 1uM” value turned out to be 5.5%.

In the case of `O=C(COC(=O)Cc1c(F)cccc1Cl)NC(=O)c1ccccc1`, the “hERG current change (%, negative = inhibition) at 1uM” value was 10.4%.

Regarding `O=C(c1ccncc1)N(c1ccc2oc3c(c2c1)CCCC3)S(=O)(=O)c1cccc([N+](=O)[O-])c1`, the “hERG current change (%, negative = inhibition) at 1uM” value worked out at 2.86%.
